# Test results reported in the antibiotic and cytotoxicity screens of Wong et al. (2023).
# The list shows a part of the results.
# Key:
# HSkMC = human skeletal muscle cells; assay: cytotoxicity call (relative viability < 0.9); details: 10 µM
# HepG2 = assay: cytotoxicity call (relative viability < 0.9); details: 10 µM
# S. aureus RN4220 = assay: growth inhibition call (relative growth <= 0.2); details: 50 µM
Compound,cytotoxicity call (HSkMC),cytotoxicity call (HepG2),growth inhibition call (S. aureus RN4220)
COc1ccc(NC(=O)Nc2ccc3c(c2)C(=O)N([C@H](C)CO)C[C@H](C)[C@H](CN(C)C(=O)NC(C)C)OCCCC[C@@H](C)O3)cc1,inactive,inactive,inactive
O=C(C[C@H]1CC[C@@H]2[C@H](COC[C@@H](O)CN2S(=O)(=O)c2cccc(F)c2)O1)NCCCN1CCOCC1,inactive,inactive,inactive
COc1cc2c(cc1OC)CN(C(=O)[C@@H]1[C@H]3C(=O)O[C@H](c4ccccc4)[C@H](c4ccccc4)N3[C@H](c3ccc(O)cc3)[C@@]13C(=O)Nc1ccc(C#CC4(O)CCCCCC4)cc13)CC2,inactive,inactive,inactive
Cn1c(-c2ccccc2)c[nH]c1=S,inactive,inactive,inactive
COc1ccc(NC(=O)Nc2ccc3c(c2)C(=O)N([C@@H](C)CO)C[C@@H](C)[C@@H](CN(C)C(=O)Nc2ccc(C(F)(F)F)cc2)O3)cc1,inactive,inactive,inactive
C[C@@H]1CCCCO[C@H](CN(C)Cc2ccccc2)[C@H](C)CN([C@H](C)CO)C(=O)c2cc(NC(=O)Nc3ccc(F)cc3)ccc2O1,inactive,inactive,inactive
C[C@H]1CN([C@@H](C)CO)C(=O)c2cc(NC(=O)c3ccncc3)ccc2O[C@@H]1CN(C)Cc1ccc(C(=O)O)cc1,inactive,inactive,inactive
C[C@@H]1CCCCO[C@@H](CN(C)Cc2ccccc2)[C@H](C)CN([C@@H](C)CO)C(=O)c2cc(NC(=O)Nc3ccc(C(F)(F)F)cc3)ccc2O1,inactive,active,inactive
COC1=C2C[C@H](C)C[C@H](OC)[C@@H](O)[C@H](C)/C=C(\C)[C@H](OC(N)=O)[C@H](OC)/C=C/C=C(\C)C(=O)NC(=CC1=O)C2=O,inactive,active,inactive
Nc1nnc(CC(=O)N2CCCCC2)o1,inactive,inactive,inactive
CC(=O)C1(O)CCC2C3CCC4=CC(=O)CCC4(C)C3CCC21C (stereo not given),inactive,inactive,inactive
C[C@@H]1CCCCO[C@@H](CN(C)C(=O)C2CCCCC2)[C@@H](C)CN([C@H](C)CO)C(=O)c2cc(NC(=O)Nc3ccc(C(F)(F)F)cc3)ccc2O1,inactive,inactive,inactive
C[C@H](CO)N1C[C@H](C)[C@H](CN(C)Cc2ccc(C(=O)Nc3ccccc3N)cc2)Oc2c(NS(=O)(=O)c3cn(C)cn3)cccc2C1=O,inactive,inactive,inactive
O=C1NCCc2c(O)cccc21,inactive,inactive,inactive
C[C@@H]1CN([C@H](C)CO)S(=O)(=O)c2ccc(-c3cccnc3)cc2O[C@H]1CN(C)C(=O)NC1CCCCC1,inactive,inactive,inactive
C[C@@H]1CN([C@H](C)CO)C(=O)c2cccc(NC(=O)Nc3ccc(C(F)(F)F)cc3)c2O[C@@H]1CN(C)S(=O)(=O)c1ccc(F)cc1,inactive,inactive,inactive
Cc1ccc(C)c(OCCCC(C)(C)C(=O)O)c1,inactive,inactive,inactive
C[C@@H]1CN([C@H](C)CO)C(=O)CCCn2nncc2CO[C@@H]1CN(C)C(=O)Nc1cccc2ccccc12,inactive,inactive,inactive
CCNC(=O)[C@@H]1CCCN1C(=O)[C@H](CCCN=C(N)N)NC(=O)[C@H](CC(C)C)NC(=O)[C@@H](Cc1c[nH]c2ccccc12)NC(=O)[C@H](Cc1ccc(O)cc1)NC(=O)[C@H](CO)NC(=O)[C@H](Cc1c[nH]c2ccccc12)NC(=O)[C@H](Cc1c[nH]cn1)NC(=O)[C@@H]1CCC(=O)N1,inactive,inactive,inactive
CCOC(=O)C1CCNCC1,inactive,inactive,inactive
Cc1noc(C)c1S(=O)(=O)Nc1ccc2c(c1)C(=O)N([C@H](C)CO)C[C@H](C)[C@@H](CN(C)C(=O)NC(C)C)O2,inactive,inactive,inactive
C[C@@H]1CN([C@H](C)CO)C(=O)c2cc(NC(=O)C3CC3)ccc2O[C@H]1CN(C)C(=O)NC1CCCCC1,inactive,inactive,inactive
CC1(C)CC(NC(=O)c2ccc(Cl)c(S(=O)(=O)N(Cc3ccccc3)c3ccccc3)c2)CC(C)(C)N1,inactive,active,inactive
Cc1ccc(S(=O)(=O)Nc2ccc3c(c2)C(=O)N([C@@H](C)CO)C[C@@H](C)[C@@H](CN(C)C(=O)Nc2c(C)noc2C)OCCCC[C@@H](C)O3)cc1,inactive,inactive,inactive
CCC=CCC1=C(C)CCC1=O,inactive,inactive,inactive
